Test results as given in PubChem BioAssay AID588342 (National Center for Advancing Translational Sciences (NCATS), 2011).
About 25,000 (6.9%) of roughly 360,000 compounds were called active. The inconclusive results got no clear call from the source; some entries with a clear call stand among them for comparison. The call rests on the fitted dose curve; in most records, active means well fitted inhibition curve with a large enough effect; inconclusive means small, poorly fitted or top-dose-only effect; inactive means flat fitted curve, though single readings scatter. Potencies beside an inconclusive call are fits to weak or partial responses and may not hold up.

target: Luciferin 4-monooxygenase (Photinus pyralis) (UniProt P08659); experiment: qHTS profiling assay for firefly luciferase inhibitor/activator using purifed enzyme and Km concentrations of substrates (counterscreen for miR-21 project); conditions: purified FLuc, luminescence inhibition; series mostly up to 57.5 µM; activity change, negative = inhibition: at the top concentration; further: nearly all actives have a fitted effect of over 55% in size;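 on activity change, negative = inhibition: plate controls were vehicle for no effect and reference inhibitor for full effect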
UniProt P08659, sequence (P08659 whole entry, looked up): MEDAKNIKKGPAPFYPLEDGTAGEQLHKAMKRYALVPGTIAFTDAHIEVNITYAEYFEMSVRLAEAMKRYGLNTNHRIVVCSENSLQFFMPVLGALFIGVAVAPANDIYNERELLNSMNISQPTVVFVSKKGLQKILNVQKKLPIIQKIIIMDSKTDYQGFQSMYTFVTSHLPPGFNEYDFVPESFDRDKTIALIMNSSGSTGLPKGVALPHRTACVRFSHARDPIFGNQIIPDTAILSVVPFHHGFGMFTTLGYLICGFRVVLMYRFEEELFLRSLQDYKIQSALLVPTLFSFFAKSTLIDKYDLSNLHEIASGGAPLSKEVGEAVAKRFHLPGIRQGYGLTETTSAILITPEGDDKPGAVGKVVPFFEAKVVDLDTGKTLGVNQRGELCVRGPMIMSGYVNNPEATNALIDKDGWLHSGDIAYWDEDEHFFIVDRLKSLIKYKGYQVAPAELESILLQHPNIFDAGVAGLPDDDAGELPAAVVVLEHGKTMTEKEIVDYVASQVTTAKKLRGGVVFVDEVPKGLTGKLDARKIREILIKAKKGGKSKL
In short: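 Biochemical qHTS of compounds, final roughly 60 µM downward over six points, against 10 nM purified firefly luciferase using Km concentrations of substrates (10 uM D-luciferin, 10 uM ATP) in Tris acetate pH 7.5 buffer; luminescence output.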
Potency means the concentration at half of the fitted maximal effect; tags describe the fitted curve by direction and shape.

| SMILES | activity change, negative = inhibition | Potency |
| --- | --- | --- |
| CCN(CC)CCNC(=O)c1ccc(NS(=O)(=O)c2ccc3c(c2)OCCO3)cc1 | inactive: 5.41% | – |
| Cc1nc(C(=O)NCCC(C)C)sc1C1(C)CC(c2ccccc2)=NO1 (stereo not given) | inactive: -0.013% | – |
| CCC(C)NC(=O)CCn1c(=O)c2cccn2c2ccc(F)cc21 (stereo not given) | inactive: -0.972% | – |
| Cc1ccc(COc2ccc(Br)cc2/C=N/O)cc1 | – | active: 13.5 µM |
| Cn1ccc2cc(S(=O)(=O)N3CCCN(C(=O)Nc4ccccc4Br)CC3)ccc21 | inactive: -9.7% | – |
| CCN(CC(=O)Nc1ccc(NC(C)=O)cc1)C(=O)/C=C/c1ccc2c(c1)OCO2 | – | inconclusive: 21.3 µM [inhibitor, partial curve, poor fit] |
| c1ccc(CNc2nc(-c3cccs3)nc3ccccc23)nc1 | – | inconclusive: 37.9 µM [inhibitor, single point] |
| CCCCNS(=O)(=O)c1ccc2nc(-c3cccnc3)cc(C(=O)NCC(OC)OC)c2c1 | inactive: 0.0754% | – |
| O=C(OCC(=O)N1CCCC1)c1c2c(nc3ccccc13)CCCCC2 | – | inconclusive: 26.9 µM [inhibitor, single point] |
| Cc1ccc(NC(=O)c2cnc(SCC(=O)N3CCOCC3)n(C)c2=O)cc1 | – | inconclusive: 12 µM [inhibitor, partial curve] |
| COc1ccc(NC(=O)c2sccc2C)cn1 | – | inconclusive: 26.9 µM [inhibitor, partial curve] |
| CN1CCC(=O)N(CCSc2ccccc2)CC1 | – | inconclusive: 13.5 µM [inhibitor, partial curve] |
| COc1ccc2nc(NC(=O)CN3CCOCC3)sc2c1 | – | inconclusive: 21.3 µM [inhibitor, partial curve, poor fit] |
| COc1cc(-c2noc(-c3ccc(NCc4cccnc4)c([N+](=O)[O-])c3)n2)cc(OC)c1OC | – | inconclusive: 21.3 µM [inhibitor, single point] |
| COc1ccc(Cc2nc3ccc(C(=O)N(C)CC4COCCO4)cc3o2)cc1 (stereo not given) | – | inconclusive: 23.9 µM [inhibitor, partial curve] |
| CCOc1ccc(CCNC(=O)CCCn2nc(C)c3sc4ccccc4c3c2=O)cc1OCC | – | inconclusive: 23.9 µM [inhibitor, partial curve, poor fit] |
| CN(C)c1ccc(-c2ccncc2)cc1 | – | inconclusive: 8.49 µM [inhibitor, partial curve, poor fit] |
| CNc1nc(N)c([N+](=O)[O-])c(Nc2ccccc2OC)n1 | inactive: -3.6% | – |
| CCOC(=O)c1c(C)[nH]c(C(=O)N/N=C/c2cc([N+](=O)[O-])ccc2O)c1C | – | inconclusive: 37.9 µM [inhibitor, single point] |
| COc1ccccc1C(=O)Nc1cccc(NC(=O)c2ccccc2OC)n1 | – | inconclusive: 12 µM [inhibitor, partial curve, poor fit] |
| CC(C)C(=O)Nc1cccc(-c2nc3ccccc3c(=O)o2)c1 | – | inconclusive: 15.1 µM [inhibitor, partial curve] |
| O=C(O)CCSc1nc2ccc(Br)cc2[nH]1 | – | inconclusive: 33.8 µM [inhibitor, partial curve, poor fit] |
| O=S(=O)(Nc1ccc(Cl)cc1)c1ccc(NS(=O)(=O)c2ccc3c(c2)OCCO3)cc1 | – | inconclusive: 13.5 µM [inhibitor, partial curve] |
| O=C1/C(=C/c2cccc(F)c2)Oc2cc(O)ccc21 | – | active: 10.7 µM |

| SMILES | activity change, negative = inhibition | Potency |
| --- | --- | --- |
| O=C(NCCOC12CC3CC(CC(C3)C1)C2)c1cccc(Br)c1 | – | inconclusive: 26.9 µM [inhibitor, partial curve, poor fit] |
| COc1ccc(/C=C/c2nnc(NC(=O)COc3cccc(C)c3)s2)cc1 | – | inconclusive: 2.69 µM [inhibitor, partial curve, poor fit] |
| COc1cccc(C(=O)N(C)c2nnc(-c3ccncc3)s2)c1 | – | inconclusive: 30.1 µM [inhibitor, partial curve, poor fit] |
| COc1ccc2oc(=O)c(C(=O)NCCc3c(C)[nH]c4c(Cl)cccc34)cc2c1 | inactive: 6.26% | – |
| COc1ccccc1/C=C1\SC(=S)N(N2C(=O)CCCC2=O)C1=O | – | inconclusive: 26.9 µM [inhibitor, single point] |
| COc1cc2ccccc2cc1C(=O)Nc1cccc(-c2nc3cc(C)c(C)cc3o2)c1C | – | inconclusive: 16.9 µM [inhibitor, partial curve, poor fit] |
| Cc1nc(-c2ccc(NC(=O)CC(C)C)cc2)cs1 | – | active: 7.57 µM |
| N#Cc1ccc2[nH]c(CO)c(-c3ccccc3)c2c1 | inactive: 0.781% | – |
| Fc1cc(Br)ccc1COc1ccc(-c2nnco2)cc1 | – | inconclusive: 2.69 µM [inhibitor, full curve] |
| COC(=O)C1CCN(Cc2cc(=O)oc3cc(OC)ccc23)CC1 | – | inconclusive: 37.9 µM [inhibitor, partial curve, poor fit] |
| Cc1oc(C(=O)Nc2ccc(O)cc2)cc1COc1ccccc1 | – | inconclusive: 37.9 µM [inhibitor, single point] |
| Cc1ccc(Cl)cc1NC(=O)c1cc(NC(=O)CCCC(=O)O)ccc1N1CCCCC1 | – | inconclusive: 23.9 µM [inhibitor, partial curve, poor fit] |
| O=C(COc1ccc(Br)cc1CO)Nc1ccccc1 | – | inconclusive: 23.9 µM [inhibitor, single point] |
| N#C/C(=C1/CCCCCN1)c1nc2ccccc2[nH]1 | – | inconclusive: 16.9 µM [inhibitor, partial curve] |
| CCOc1ccccc1NC(=O)c1c(NCc2sccc2C)sc2c1CCCCC2 | – | inconclusive: 23.9 µM [inhibitor, partial curve, poor fit] |
| CCOc1ccc(C2NC(=O)C(C#N)=C(S)N2c2ccc(C)cc2)cc1OC (stereo not given) | – | active: 16.9 µM |
| N#Cc1ccccc1CSc1nc(N)cc(N)n1 | inactive: -11.6% | – |
| CC1CCN(c2ccc(-c3nc(C(C)C)no3)cc2[N+](=O)[O-])CC1 | – | inconclusive: 26.9 µM [inhibitor, partial curve] |
| Cc1ccc(NC(=O)N2CCCc3ccccc32)cc1 | – | inconclusive: 23.9 µM [inhibitor, partial curve] |
| Cc1ccc(-n2ncc(C(=O)NCCc3ccsc3)c2C2CCN(C(=O)OC(C)(C)C)CC2)cc1C | inactive: -0.499% | – |
| COc1cc(-c2nc3c4ccccc4nc(=S)n3[nH]2)cc(OC)c1OC | – | inconclusive: 23.9 µM [inhibitor, single point] |
| Cc1[nH]cc(Br)c(=O)c1Oc1ncc(C(F)(F)F)cc1Cl | – | inconclusive: 19 µM [inhibitor, partial curve, poor fit] |
| Cc1cc(NC(=O)CSc2ncc(C(=O)Nc3ccc(F)cc3)c(=O)n2C)no1 | inactive: -1.33% | – |
| NC(=O)CSc1ncc2c(n1)-c1ccccc1N(Cc1cccc(F)c1)S2(=O)=O | inactive: -2% | – |

| SMILES | activity change, negative = inhibition | Potency |
| --- | --- | --- |
| O=C(N/N=C\c1cn[nH]c1-c1ccccc1)c1cccnc1 | – | inconclusive: 23.9 µM [inhibitor, partial curve, poor fit] |
| NS(=O)(=O)c1ccc(N/C=C\C(=O)c2ccc(F)cc2)cc1 | – | active: 15.1 µM |
| COCCNC(=O)COCc1cc(-c2ccc3c(c2)OCO3)on1 | – | inconclusive: 37.9 µM [inhibitor, single point] |
| CN(C)S(=O)(=O)c1ccc2c(c1)N(CC(=O)N1CCN(c3ccc(F)cc3)CC1)CCS2 | inactive: -3.98% | – |
| CC1CCCCN1S(=O)(=O)c1ccc(C(=O)N2CCOCC2)cc1 (stereo not given) | inactive: 0.0924% | – |
| CCOC(=O)c1cc(-c2ccc(OC)cc2)n[nH]1 | – | active: 16.9 µM |
| Cc1cccc(-n2c(O)c(/C=N/NC(=O)c3ccccc3Cl)c3ccccc3c2=O)n1 | – | inconclusive: 16.9 µM [inhibitor, partial curve] |
| COc1ccc2c(CC(=O)Nc3ccccc3OC)coc2c1 | – | inconclusive: 23.9 µM [inhibitor, partial curve, poor fit] |
| O=C(O)CNc1nc(-c2ccccc2)nc2c1oc1ccccc12 | – | inconclusive: 26.9 µM [inhibitor, single point] |
| Cc1ccc(Nc2cc(C(=O)NCCCN3CCOCC3)c3ccccc3n2)cc1C | – | active: 12 µM |
| N#Cc1c(-c2ccc(Cl)cc2)ccnc1N1CCOCC1 | – | inconclusive: 37.9 µM [inhibitor, partial curve, poor fit] |
| CC(=O)Nc1cccc(C(=O)OCC(=O)NCc2ccc(F)cc2)c1 | inactive: -9.23% | – |
| COc1ccccc1Nc1cc(C(=O)NCc2cccs2)c2ccccc2n1 | – | active: 9.53 µM |
| CS(=O)(=O)N1CCN(c2ccc(NC(=O)c3ccccc3)cc2)CC1 | – | inconclusive: 2.69 µM [inhibitor, full curve] |
| CCOC(=O)c1sc2nc(-c3ccco3)c3c(c2c1N)CC(C)(C)OC3 | – | inconclusive: 16.9 µM [inhibitor, partial curve] |
| COc1ccccc1-c1ccc(/C=C2\C=CC(=O)O2)o1 | – | active: 7.57 µM |
| COCCNc1cc(-c2ccccc2)nc2cc(-c3cccc(F)c3)nn12 | – | inconclusive: 23.9 µM [inhibitor, single point] |
| CC(C)(C)c1ccc(C(=O)NCc2nnc(SCC(=O)NC3CCCC3)o2)cc1 | – | inconclusive: 21.3 µM [inhibitor, single point] |
| CC(CC(=O)NCc1ccco1)S(=O)(=O)c1ccc2c(c1)CCN2C(=O)C1CC1 (stereo not given) | inactive: 0.319% | – |
| Cc1cccc(NC(=O)CSc2nc(N)c(NC(=O)c3cccs3)c(=O)[nH]2)c1C | – | inconclusive: 21.3 µM [inhibitor, partial curve, poor fit] |
| COc1cc(NC(=O)C2=COCCO2)c(OC)cc1Cl | inactive: -0.641% | – |
| Cc1ccc(S(=O)(=O)N(C)C)cc1NC(=O)COC(=O)/C=C/c1ccc2c(c1)OCO2 | – | active: 21.3 µM |
